In patent US20260193315A1 (FBD BIOLOGICS, published 2026):

Key:
[1] = biological target: T1, 4-1BB (coated on ELISA plate) (UniProt Q07011 24-186, limits assumed); experiment: ELISA on coated 4-1BB, supernatant, OD450
Experimental: (§1) After centrifugation, culture supernatant was collected for determination of expression and binding activity of the 4-1BBL variants. To determine expression of the 4-1BBL variants, a 96-well plate (flat bottom) was coated with 2 μg/ml anti-His tag antibody overnight. The pre-coated plate was then blocked with 5% milk in PBS at room temperature (RT) for 1 hour. After blocking, 30 μl of bacterial supernatant was added to each well of the plate, and the plate was incubated for 1 hour at RT. After the incubation, anti-c-myc-HRP was added, and the expression level of 4-1BBL variants can be determined by measuring OD450 in a plate reader. To determine binding activity of the 4-1BBL variants, a 96-well plate (flat bottom) was coated with 0.5 μg/ml of 4-1BB overnight. The pre-coated plate was then blocked with 5% milk in PBS at RT for 1 hour. After blocking, 30μ of bacterial supernatant was added to each well of the plate, and the plate was incubated for 1 hour at RT. After the incubation, anti-c-myc-HRP was added, and the 4-1BB-binding activity of 4-1BBL variants can be determined by measuring OD450 in a plate reader.

[2] = biological target: T1, 4-1BB (coated on ELISA plate); experiment: ELISA, binding/expression ratio relative to WT
Experimental: as §1
(§2) The 4-1BB-binding activity was measured using the same methods described above. […] After the incubation, the luminance signal was detected to determine the 4-1BB reporter activity.

[3] = biological target: T1, 4-1BB (coated on ELISA plate); experiment: ELISA on coated 4-1BB, supernatant, OD450; remark: listed apart in the source
Experimental: as §1

[4] = biological target: T1, 4-1BB (coated on ELISA plate); experiment: ELISA, binding OD450 / expression OD450
Experimental: as §1

[5] = biological target: T1, 4-1BB (coated on ELISA plate); experiment: ELISA, binding OD450 / expression OD450; remark: listed apart in the source
Experimental: as §1, §2

[6] = biological target: T1, 4-1BB (coated on ELISA plate); experiment: ELISA, binding OD450 / expression OD450, after 45 °C 30 min
Experimental: as §1

[7] = biological target: T1, 4-1BB (coated on ELISA plate); experiment: as above; remark: listed apart in the source
Experimental: as §1

[8] = biological target: 4-1BB on transfected NF-κB Jurkat cells (UniProt Q07011 24-255, limits assumed); experiment: cell-based or functional assay
[9] = biological target: T1, 4-1BB (coated on ELISA plate); experiment: ELISA on coated 4-1BB, supernatant after 45 °C 30 min, OD450
Experimental: as §1

[10] = biological target: T1, 4-1BB (coated on ELISA plate); experiment: as above; remark: listed apart in the source
Experimental: as §1

[11] = biological target: T1, 4-1BB (coated on ELISA plate); experiment: ELISA, binding OD450 / expression OD450; remark: listed apart in the source
Experimental: as §1

[12] = biological target: T1, 4-1BB (coated on ELISA plate); experiment: ELISA on coated 4-1BB, supernatant
Experimental: as §1, §2

[13] = biological target: T2, 4-1BB on activated human T cells (human, UniProt Q07011 24-255); experiment: flow cytometry on activated T cells, class against wild type
T2 construct: whole, on cells
Experimental: The activated T cell (whole cell) binding activity was determined as follows. T cells were isolated from a human PBMC donor by Ficoll-Paque® density gradient centrifugation. The isolated T cells were activated by CD3/CD28 Dynabeads® at a cell-to-bead ratio of 1:2 for 4 days to induce 4-1BB expression. 5×10⁴/well of activated T cells were incubated with the G4Fc-4-1BBL variants at indicated concentrations for 30 minutes at 4° C., and then incubated with PE-conjugated anti-human Fc secondary antibody for 30 minutes at 4° C. The binding activity was analyzed by a CytoFlex™ flow cytometer.

B1: wild-type 4-1BBL (peG4Fc_4-1BBLv2; SEQ ID NO: 3) (Fc fusion)
chain: [human IgG4 Fc with S228P (EU numbers) skipped]GGGGSGGGGSRQGMFAQLVAQNVLLIDGPLSWYSDPGLAGVSLTGGLSYKEDTKELVVAKAGVYYVFFQLELRRVVAGEGSGSVSLALHLQPLRSAAGAAALALTVDLPPASSEARNSAFGFQGRLLHLSAGQRLGVHLHTEARARHAWQLTQGATVLGLFRVT
notes: also called G4Fc-4-1BBL-wt; wild-type G4Fc-4-1BBL
- Binding (25 °C) [1]: 1.86
- Binding (vs wt) [2]: 1
- Binding (25 °C) [3]: 1.65
- Binding / Expression ratio (25 degrees) [4]: 1.11
- Binding/Expression ratio [5]: 1.74
- Binding / Expression ratio (45degrees) [6]: 1.5
- Binding / Expression ratio (45degrees) [7]: 1.28
- Reporter (RLU) [8]: 3640 RLU
- Reporter (vs wt) [8]: 1
- Reporter/Expression ratio [8]: 2860
- Binding (45 °C) [9]: 1.5
- Binding (45 °C) [10]: 1.5
- Binding / Expression ratio (25 degrees) [11]: 1
- Binding (OD450) [12]: 2.21 OD450

B2: 2E10 (Fc fusion)
IgG4 Fc-4-1BBL variant fusion: [human IgG4 Fc with S228P (EU numbers) skipped]GGGGSGGGGSRQGMFAQLVAQNVLLIDGPLSWYTDPGLAGVSLTGGLSYKEDTKELVVAKAGVYYVFFQLELRRVVAGEGSGSVSLALHLQPLRSAAGAAALALTVDLPPASSEARNSAFGFQGRLLHLSAGQRLGVHLHTEARARHAWQLSQGATVLGLFRVT
notes: also called G4Fc-4-1BBL-2E10; G4Fc-4-1BBL variant 2E10
- binding result [13]: binds

B3: 3B5 (Fc fusion)
IgG4 Fc-4-1BBL variant fusion: [human IgG4 Fc with S228P (EU numbers) skipped]GGGGSGGGGSRQGMFAQLVAQNVLLIDGPLSWYSDPGLAGVSLTGGLSYKEDTKELVVAKAGVYYVFFQLELRRVVAKEGSGSVSLALHLQPLRSAAGAAALALTVDLPPASSEARNSAFGFQGRLLHLSAGQRLGVHLHTEARARHAWQLTQGQTVLGLFRVT
notes: also called G4Fc-4-1BBL-3B5; G4Fc-4-1BBL variant 3B5
- binding result [13]: binds

B4: 3F8 (Fc fusion)
IgG4 Fc-4-1BBL variant fusion: [human IgG4 Fc with S228P (EU numbers) skipped]GGGGSGGGGSRQGMFAQLVAQNVLLIDGPLSWYNDPGLAGVSLTGGLSYKEDTKELVVAKAGVYYVFFQLELRRVVAGQGSGSVSLALHLQPLRSAAGAAALALTVDLPPASSEARNSAFGFQGRLLHLSAGQRLGVHLHTEARARHAWQLTQGATVLGLFRVT
notes: also called G4Fc-4-1BBL-3F8; G4Fc-4-1BBL variant 3F8
- binding result [13]: binds

B5: 3G7 (Fc fusion)
IgG4 Fc-4-1BBL variant fusion: [human IgG4 Fc with S228P (EU numbers) skipped]GGGGSGGGGSRQGMFAQLVAQNVLLIDGPLSWYTDPGLAGVSLTGGLSYKEDTKELVVAKAGVYYVFFQLELRRVVAGEGSGSVSLALHLQPLRSAAGAAALALTVDLPPASSEARNSAFGFQGRLLHLSAGQRLGVHLHTEARARHAWQLTQGRTVLGLFRVT
notes: also called G4Fc-4-1BBL-3G7; G4Fc-4-1BBL variant 3G7
- binding result [13]: binds

B6: 5G10 (Fc fusion)
IgG4 Fc-4-1BBL variant fusion: [human IgG4 Fc with S228P (EU numbers) skipped]GGGGSGGGGSRQGMFAQLVAQNVLLIDGPLSWYSDPGLAGVSLTGGLSYKEDTKELVVAKAGVYYVFFQLELRRVVAGQGSGSVSLALHLQPLRSAAGAAALALTVDLPPASSEARNSAFGFQGRLLHLSAGQRLGVHLHTEARARHAWQLTQGATVLGLFRVT
notes: also called G4Fc-4-1BBL-5G10; G4Fc-4-1BBL variant 5G10
- binding result [13]: binds

Where two headings read alike, the source gives them in different places.
